# Data published in the supplement of paper PMC10126150.
# Values marked as one replicate rest on one cluster of the flow cell; about a third of the high ones do not repeat.
# Tested on: ATP
# Test: switch fluorescence ratio, 500 uM ATP over buffer (Cy3 cluster intensity, sum of 5 cycles each) (fold (ratio)); higher = stronger signal-on switching upon ATP binding; sequences stand for … in TCGTCGGCAGCGTCAGATGTGTATAAGAGACAGTTTTTTTTTTTTTTTTTTTTTTTTT…TC
# Conditions: aptamer strand: ATP DNA aptamer (quencher-CACCTGGGGGAGTATTGCGGAGGAAGG + anchor), 100 nM annealed; ATP concentration: 500 uM; one replicate
# In short: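 After annealing to 100 nM quencher-labelled ATP aptamer, Cy3-labelled switching-strand clusters on a modified Illumina MiSeq flow-cell were imaged in selection buffer. A second image followed after 15 min with 500 uM ATP at 22 °C, and five such buffer/ATP cycles were done, each separated by NaOH stripping and re-annealing. The fluorescence ratio, averaged per switch-domain sequence, is summed target-cycle over summed buffer-cycle Cy3 intensity per cluster, with clusters outside 100-1000 RFU excluded.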
# 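Also: ATP exposure 15 min at 22 °C before imaging.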
row,Sequence,switch fluorescence ratio
1,CAGAAAACGG,1.05
2,CAGAAATCAT,1.05
3,CAGAAGACTC,0.997
4,CAGAATGATC,1.04
5,CAGAATGGAT,0.996
6,CAGAATTCTC,0.994
7,CAGACAATAA,1.44
8,CAGACCAATG,1.01
9,CAGACGACAG,1.07
10,CAGACGGTCT,0.972
11,CAGACTATG,0.962
12,CAGACTTAAT,1.06
13,CAGAGAGGCA,0.96
14,CAGAGCATGT,1.03
15,CAGAGCCAGT,0.972
16,CAGAGCTACC,1.18
17,CAGAGGGGAA,1
18,CAGAGTACTG,1.01
19,CAGAGTATTG,0.963
20,CAGAGTCACC,1.04
21,CAGATAGTTT,0.987
22,CAGATATCGC,0.982
23,CAGATCTTTC,1.02
24,CAGATTGGAT,0.967
25,CAGCACTGAC,1.76
26,CAGCATATCT,1.53

row,Sequence,switch fluorescence ratio
1,CAGCATGCCG,0.963
2,CAGCCCAAAT,1.01
3,CAGCCCAAGT,0.991
4,CAGCCCAGCA,1.02
5,CAGCCCCCTG,1.08
6,CAGCCCGCGT,1.07
7,CAGCCCTACT,1.14
8,CAGCGACAAT,1.23
9,CAGCGAGCTG,0.998
10,CAGCGCAGGG,1.12
11,CAGCGGAAGT,0.989
12,CAGCGGCGAC,1.2
13,CAGCGTAGGA,0.999
14,CAGCTGGCCG,1.06
15,CAGCTTACGG,1.05
16,CAGGAAATTA,1.01
17,CAGGAAGGTC,0.995
18,CAGGAATTGC,1.03
19,CAGGACAGCA,1.06
20,CAGGACAGCG,1.01
21,CAGGACGGGA,1.04
22,CAGGACTGGT,0.984
23,CAGGAGACAG,0.944
24,CAGGAGCTAG,1.53
25,CAGGATAACG,1.04
26,CAGGATAGGA,1.18

row,Sequence,switch fluorescence ratio
1,CAGGCACATC,1.17
2,CAGGCAGGGC,1.03
3,CAGGCATATT,1.02
4,CAGGCCAAGT,1.03
5,CAGGCCACTC,1
6,CAGGCCTCTC,1.01
7,CAGGCGCCAT,0.991
8,CAGGCTAAAA,1
9,CAGGCTAGAC,1.01
10,CAGGGACGAT,1.01
11,CAGGGACGTC,1.04
12,CAGGGCATGA,1.07
13,CAGGGCCCCA,0.958
14,CAGGGGGGT,1.03
15,CAGGGTATCG,1.03
16,CAGGGTCTCC,0.966
17,CAGGGTGCGC,1.06
18,CAGGGTGTTC,0.999
19,CAGGTACTCT,1.07
20,CAGGTCCAAA,1.07
21,CAGGTCTTAG,1.03
22,CAGGTGGGTA,1.19
23,CAGGTTATTG,1.02
24,CAGGTTCAGT,0.991
25,CAGGTTCTT,0.946
26,CAGTAAATTG,1.02

row,Sequence,switch fluorescence ratio
1,CAGTAACTAA,1.01
2,CAGTAAGACT,1.52
3,CAGTAGGGAT,0.998
4,CAGTAGTAAT,2.28
5,CAGTATAGGA,1.01
6,CAGTATTTTC,1.02
7,CAGTCACATA,1.09
8,CAGTCATGCG,0.921
9,CAGTCCTCTG,1
10,CAGTCGACGC,0.979
11,CAGTCGGTGC,0.998
12,CAGTCTATTA,1.05
13,CAGTCTGAAC,1.03
14,CAGTCTGTTA,1.06
15,CAGTGAGCGA,1.08
16,CAGTGCATTC,1.27
17,CAGTGCCCGG,1.03
18,CAGTGGCATG,0.994
19,CAGTGGGCAC,0.964
20,CAGTGGTAG,0.986
21,CAGTTAAATC,0.93
22,CAGTTATAGC,1.05
23,CAGTTATATG,1.02
24,CAGTTCAACG,1.03
25,CAGTTCCTTG,0.999
26,CAGTTGAGGG,0.977

row,Sequence,switch fluorescence ratio
1,CAGTTGCGTG,1.02
2,CAGTTGGTTG,1.01
3,CAGTTTATAT,1.02
4,CATAAATCGC,1.13
5,CATAAATGAG,0.993
6,CATAACACCA,1.05
7,CATAACGTCT,1.05
8,CATAAGCCCA,0.994
9,CATAAGTCTT,1.01
10,CATAAGTTAC,1.17
11,CATAATGCAT,0.936
12,CATAATGGTT,1.04
13,CATACACAA,1.72
14,CATACCGTAC,1.93
15,CATACGGTAT,1.21
16,CATAGATGAA,0.974
17,CATAGCCATT,1.04
18,CATAGCTT,1.06
19,CATAGGGAGG,0.965
20,CATAGGGCAT,1.03
21,CATAGGTA,1.01
22,CATAGTACAA,1.06
23,CATAGTACAG,1.09
24,CATAGTTATG,0.98
25,CATATACA,1.1
26,CATATATGCT,1.01

row,Sequence,switch fluorescence ratio
1,CATATCCTTG,0.974
2,CATATGAAG,1.02
3,CATATGATGT,1.05
4,CATATGGTCA,1
5,CATATTAATG,0.989
6,CATATTAGCG,0.958
7,CATATTCTG,0.976
8,CATCAAAGAC,1.58
9,CATCAAATGT,0.99
10,CATCAACCT,1.73
11,CATCAAGTTC,0.951
12,CATCAATACT,3.86
13,CATCACGACA,1.22
14,CATCACTAGC,1.04
15,CATCAGCAGA,2.29
16,CATCATAAGA,1.01
17,CATCATTTGT,1.01
18,CATCCAAGGT,1.13
19,CATCCAATTA,1.14
20,CATCCAATTT,1.05
21,CATCCACTCG,1.08
22,CATCCGATGG,1.41
23,CATCCGTACA,4.93
